# From PubChem BioAssay AID588855 (National Center for Advancing Translational Sciences (NCATS), 2011)
# About 5,000 (1.2%) of roughly 410,000 compounds were called active. The shares of active, inactive and inconclusive entries below differ from those in the screen. The call rests on the fitted dose curve; in most records, active means well fitted inhibition curve with a large enough effect; inconclusive means small, poorly fitted or top-dose-only effect; inactive means no such curve, though single readings can be large or run the other way. Where the call is inconclusive, the potency comes from a doubtful curve fit.
# Assay: qHTS for Inhibitors of TGF-b; further: nearly all actives have a fitted effect of over 65% in size
# Conditions: HepG2 CAGA-GFP TGF-b/SMAD3 reporter, GFP fluorescence, 18 h, TGF-beta stimulated, 500 pg/mL final; series mostly up to 46.1 µM
# Method in brief: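 HEPG2 CAGA-GFP, 1000 cells/well; 2 h settle, 37 C; cpd via pin tool; TGF-b 500 pg/mL final; 18 h, 37 C; GFP imaging ex488/em500-530; %Activity normalised to -TGF-b and +DMSO controls; CRC fit, curve class.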
# Potency means the concentration at half of the fitted maximal effect; tags describe the fitted curve by direction and shape.
row,SMILES,Potency
1,CC(=O)Nc1cccc(-c2ccnc3c2CC(C)(C(=O)Nc2cccc(Oc4ccccc4)c2)O3)c1 (stereo not given),"inconclusive: 35.5 µM [inhibitor, single point]"
2,CC(=O)N1CCc2c(sc3c2c(=O)n(-c2ccccc2)c(=O)n3CC(=O)c2ccccc2)C1,"inconclusive: 35.5 µM [inhibitor, partial curve, poor fit]"
3,Cc1cccc(NC(=O)C2CC(O)CN2C(=O)Oc2ccccc2)c1 (stereo not given),"inconclusive: 2.82 µM [inhibitor, partial curve, poor fit]"
4,Cc1ccc(Sc2ccc(NC(=O)CCl)cc2)c(C)c1,"inconclusive: 35.5 µM [inhibitor, single point]"
5,Cc1ccc(-c2nn(C(C)(C)C)c3ncnc(NS(=O)(=O)c4ccc([N+](=O)[O-])cc4)c23)cc1,"inconclusive: 35.5 µM [inhibitor, single point]"
6,Cc1ccc(S(=O)(=O)N(C)c2ccc(NS(C)(=O)=O)cc2)cc1,"inconclusive: 28.2 µM [inhibitor, single point]"
7,O=C(CCCCn1c(=O)[nH]c2ccccc2c1=O)NC1CCN(Cc2ccccc2)CC1,"inconclusive: 35.5 µM [inhibitor, single point]"
8,CCOC(=O)CC(=O)Nc1ncnc2c1C(c1ccccc1)c1c(ccc3ccccc13)O2 (stereo not given),"inconclusive: 5.01 µM [inhibitor, full curve, poor fit]"
9,NNC(=O)CNC(=O)c1ccccc1F,inactive
10,CCOc1cc(C(=O)Nc2cc3c(cc2N2CCCC2)n(C)c(=O)c(=O)n3C)cc(OCC)c1OCC,"inconclusive: 22.4 µM [inhibitor, partial curve, poor fit]"
11,CCn1cc(C(=O)NCc2ccco2)c(=O)c2cc(S(=O)(=O)N3CC(C)CC(C)C3)ccc21 (stereo not given),"inconclusive: 0.112 µM [inhibitor, full curve, poor fit]"
12,COc1cccc(-c2nc(CS(=O)(=O)CC(=O)NC3CCCc4ccccc43)c(C)o2)c1 (stereo not given),"inconclusive: 12.6 µM [inhibitor, single point]"
13,CCC(=O)N1CCc2cc(Br)cc(S(=O)(=O)NCCc3cccc(C)c3)c21,active: 11.2 µM
14,CCOC(=O)C1CCCN(c2nc3ccccc3nc2NS(=O)(=O)c2ccc(C)cc2)C1 (stereo not given),"inconclusive: 35.5 µM [inhibitor, single point]"
15,O=C(COc1ccc(F)cc1Cl)Nc1cccc(S(=O)(=O)N2CCCCCC2)c1,inactive
16,CCO[C@H]1OC(C(=O)N2CCOCC2)=C[C@@H](c2ccccc2)[C@@H]1CCCO,"inconclusive: 0.112 µM [inhibitor, full curve, poor fit]"
17,O=C(NCc1ccccn1)c1ccc2c(=O)n(CCc3ccccc3)c(=O)[nH]c2c1,inactive
18,CCOc1ccccc1CNC(=O)c1cc2c(=O)n(Cc3cccnc3)ccc2nc1C,inactive
19,COc1cccc(CNCCc2c[nH]c3ccccc23)c1OCc1ccc(F)cc1,"inconclusive: 22.4 µM [inhibitor, single point]"
20,O=C(COC(=O)/C=C/C(=O)N1CCN(c2ccccc2)CC1)NC(c1ccccc1)c1ccccc1,"inconclusive: 35.5 µM [inhibitor, single point]"
21,Cc1nn(-c2ccccc2)c2[nH]c(=O)c(CNc3ccc(N4CCOCC4)cc3)cc12,inactive
22,O=C(Nc1nnc(-c2ccccc2Cl)o1)c1ccc(S(=O)(=O)N2CCCCCC2)cc1,"inconclusive: 14.1 µM [inhibitor, single point]"

row,SMILES,Potency
1,Cc1cc(-n2c(C)cc(C(=O)CSc3nncn3C(C)C)c2C)no1,"inconclusive: 5.62 µM [inhibitor, single point]"
2,COCCNC(=O)c1ccc2c(c1)N(Cc1cc(C)ccc1C)C(=O)c1ccccc1S2=O (stereo not given),"inconclusive: 28.2 µM [inhibitor, partial curve, poor fit]"
3,OC(C#Cc1ccccc1)(c1ccccc1)c1ccccc1,"inconclusive: 35.5 µM [inhibitor, single point]"
4,CCC(=O)c1ccc(OCC(=O)N2CCN(S(=O)(=O)c3ccc(Cl)s3)CC2)cc1,"inconclusive: 31.6 µM [inhibitor, single point]"
5,O=C(Cn1c(SCc2ccc(F)cc2)nc2cccnc21)Nc1ccccc1F,"inconclusive: 0.891 µM [inhibitor, full curve, poor fit]"
6,CCCN(CCC)C(=S)NC(=O)c1ccc(Cl)cc1Cl,"inconclusive: 1.58 µM [inhibitor, full curve]"
7,O=C(CSc1ccc2c(c1)OCCO2)Nc1ccc(Br)cc1,"inconclusive: 35.5 µM [inhibitor, single point]"
8,CSc1ncnc2ncn(C)c12,inactive
9,CCCCN(C)CC(O)Cn1cc(/C=C/C(=O)c2ccc(Br)cc2)c2ccccc21 (stereo not given),"inconclusive: 14.1 µM [inhibitor, single point]"
10,CCN1CCN(c2nc(N)c([N+](=O)[O-])c(Nc3ccc(C)cc3)n2)CC1,"inconclusive: 7.08 µM [inhibitor, partial curve, poor fit]"
11,CC(C)C(=O)N1CCN(c2ccc(NC(=S)NC(=O)c3cc4ccccc4o3)cc2)CC1,inactive
12,O=S(=O)(NCC(c1ccccc1)N1CCNCC1)c1ccc(Cl)cc1 (stereo not given),active: 12.6 µM
13,CN(C(=O)c1ccc(NC(=O)C2CCCN(C(=O)OC(C)(C)C)C2)cc1)C1CCC1 (stereo not given),"inconclusive: 35.5 µM [inhibitor, single point]"
14,CC(=O)c1ccc(NC(=O)CSC2=Nc3ccccc3N=C(c3ccc(F)cc3)C2)cc1,"inconclusive: 0.708 µM [inhibitor, partial curve, poor fit]"
15,O=C(COc1ccc(Cl)cc1)NNC(=O)c1ccc(=O)[nH]c1,"inconclusive: 5.62 µM [inhibitor, full curve, poor fit]"
16,OCCC1CN(Cc2cccc(OC3CCCC3)c2)CCN1Cc1ccsc1 (stereo not given),"inconclusive: 11.2 µM [inhibitor, single point]"
17,CCN(CC)CCNC(=O)CCc1c(C)nc2c(c(C)nn2-c2ccc(C)cc2)c1C,"inconclusive: 28.2 µM [inhibitor, single point]"
18,Cc1ccc(-n2nc3c(=O)n(C(C)C(=O)NCc4ccc(OC(C)C)cc4)nc(C)c3c2C)cc1 (stereo not given),"inconclusive: 1.12 µM [inhibitor, partial curve, poor fit]"
19,NS(=O)(=O)c1ccc(NC(=O)COC(=O)CCC2CCCCC2)cc1,"inconclusive: 2.82 µM [inhibitor, single point]"
20,Cc1cc(NC(=O)CCNS(=O)(=O)c2cc(Br)cnc2N)ccc1Br,active: 11.2 µM
21,OCCCn1c(C(CO)Nc2nc(-c3ccc(Cl)cc3)cs2)nc2ccccc21 (stereo not given),active: 17.8 µM
22,CCOc1cc(C)ccc1OCc1nnc(SCC(=O)c2cccc([N+](=O)[O-])c2)n1CC,"inconclusive: 35.5 µM [inhibitor, single point]"

row,SMILES,Potency
1,COC(=O)c1ccc(COc2cccn3c(N(C)C(=O)CCC4CCCC4)c(C)nc23)cc1,"inconclusive: 5.01 µM [inhibitor, partial curve, poor fit]"
2,Cc1ccc(OCC(=O)NNC(=O)c2cc(S(=O)(=O)N(C)C)ccc2N2CCCC2)cc1,inactive
3,Cc1cc(C)cc(-n2c(SCC(=O)Nc3ccccc3)nc3c(oc4ccccc43)c2=O)c1,inactive
4,CC(CCc1ccccc1)NCc1ccc(Cl)cc1Cl (stereo not given),"inconclusive: 35.5 µM [inhibitor, single point]"
5,CC(C)C(=O)NS(=O)(=O)c1ccc(N)cc1,"inconclusive: 3.16 µM [inhibitor, single point]"
6,COc1ccc(-c2nc3cc(NC(=S)NC(=O)Cc4ccccc4)ccc3o2)cc1,inactive
7,CC1CN(C(=O)c2ccncc2)CC(C)O1 (stereo not given),"inconclusive: 35.5 µM [inhibitor, single point]"
8,CCOc1ccc(NC2=CC(=O)C(=O)c3ccccc32)cc1,active: 4.47 µM
9,Cc1[nH]c2ccc(C(=O)OC(C)C(=O)NC3CCCCC3C)cc2c1C (stereo not given),"inconclusive: 25.1 µM [inhibitor, single point]"
10,COc1ccc(/C=C2/SC(=O)NC2=O)cc1,inactive
11,COc1ccc(N(CC(=O)N/N=C/c2ccco2)S(=O)(=O)c2ccccc2)cc1Cl,inactive
12,CC1(C(=O)Nc2cccnc2)Cc2c(-c3ccc4c(c3)OCO4)ccnc2O1 (stereo not given),inactive
13,COC1=CC(=O)c2ccccc2C1=O,active: 1.41 µM
14,CC(=O)[C@@]1(O)C(C)CC2C3C=C(C)C4=Cc5c(cnn5-c5ccccc5)C[C@]4(C)C3C(O)C[C@@]21C (stereo not given in full),"inconclusive: 31.6 µM [inhibitor, single point]"
15,COc1ccc(/C=C/C(=O)OCC(=O)Nc2ncc(Cl)cc2Cl)cc1,"inconclusive: 35.5 µM [inhibitor, single point]"
16,O=P(Nc1ccccc1)(Nc1ccccc1)c1ccccc1,inactive
17,CC(=O)c1c(N2CCCC2)[nH]c(-c2ccccc2)nc1=S,inactive
18,Cc1ccc(CNC(=O)CSc2nc3c(sc4ccccc43)c(=O)n2CCCC(=O)NCCO)cc1,inactive
19,C[C@@H]1CN([C@H](C)CO)C(=O)c2cc(NC(=O)Nc3cccc4ccccc34)ccc2O[C@H]1CN(C)Cc1ccc(C(F)(F)F)cc1,"inconclusive: 15.8 µM [inhibitor, single point]"
20,O=C(Nc1ccc(F)cc1)Nc1csc2c1CCCC2,"inconclusive: 14.1 µM [inhibitor, single point]"
21,O=C(OCC(O)C1OC(c2ccccc2)OC(COC(=O)c2ccccc2)C1O)c1ccccc1 (stereo not given),"inconclusive: 14.1 µM [inhibitor, single point]"
